Data: US11419945B2, “Antigen binding proteins” (Glaxo Group Limited, priority 2011, dated 2022)

T1: Human commercial BCMA (Homo sapiens, UniProt Q02223)
T1 construct: purchased US Biological B0410
T1 sequence (Q02223 1-184): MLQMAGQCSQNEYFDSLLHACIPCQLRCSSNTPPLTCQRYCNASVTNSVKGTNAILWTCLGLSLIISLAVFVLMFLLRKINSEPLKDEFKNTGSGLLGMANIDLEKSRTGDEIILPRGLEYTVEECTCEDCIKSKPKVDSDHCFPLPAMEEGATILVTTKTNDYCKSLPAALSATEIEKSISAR


Assays:
Assay type in all cases: binding
[1] = target: Cyno in house BCMA; assay: ProteOn analysis of CA8 chimeric and humanised constructs, cyno in house BCMA; settings: 25° C.
[2] = target: T2, Human in house BCMA (Homo sapiens, UniProt Q02223); assay: ProteOn analysis of CA8 chimeric and humanised constructs, human in house BCMA; settings: 25° C.; for ka: in M-1s-1 (unit assumed); for kd: in s-1 (unit assumed)
T2 construct: CD33 signal peptide (N); TEV site (internal); Fc (C); made in house
Experimental: (§1) The initial screen of CA8 chimeric and humanised variants was carried out on the ProteOn XPR36 (Biorad). The method was as follows; Protein A was immobilised on a GLC chip (Biorad, Cat No: 176-5011) by primary amine coupling, CA8 variants were then captured on this surface and recombinant human BCMA (in house or commercial US Biological, B0410) materials (run 2 only)) passed over at 256, 64, 16, 4, 1 nM with a 0 nM injection (i.e. buffer alone) used to double reference the binding curves, the buffer used is the HBS-EP buffer. 50 mM NaOH was used to regenerate the capture surface. The data was fitted to the 1:1 model using the analysis software inherent to the ProteOn XPR36. Run 1 corresponds to the first screen of humanised CA8 variants (JO to J5 series) and run 2 to the second screen of humanised CA8 variants (J5 to J9 series). Both runs were carried out at 25° C.

[3] = target: T1, Human commercial BCMA; assay: ProteOn analysis of CA8 chimeric and humanised constructs, commercial human BCMA; settings: Run 2, commercial human BCMA, 25° C.
Experimental: as §1

[4] = target: T2, Human in house BCMA; assay: ProteOn analysis of new anti-BCMA chimeric constructs; settings: 25° C.
Experimental: The initial screen of the new chimeric variants from the second batch of hybridomas was carried out on the ProteOn XPR36 (Biorad). The method was as follows; Protein A was immobilised on a GLM chip (Biorad, Cat No: 176-5012) by primary amine coupling, anti-BCMA variants were then captured on this surface and recombinant human BCMA (in house material) passed over at 256, 64, 16, 4, 1 nM with a 0 nM injection (i.e. buffer alone) used to double reference the binding curves, the buffer used is the HBS-EP buffer. Regeneration of the capture surface was carried out using 50 mM NaOH. The data was fitted to the 1:1 model using the analysis software inherent to the ProteOn XPR36. The run was carried out at 25° C.

T2 sequence (Q02223 with tags, fused parts or gaps limits assumed): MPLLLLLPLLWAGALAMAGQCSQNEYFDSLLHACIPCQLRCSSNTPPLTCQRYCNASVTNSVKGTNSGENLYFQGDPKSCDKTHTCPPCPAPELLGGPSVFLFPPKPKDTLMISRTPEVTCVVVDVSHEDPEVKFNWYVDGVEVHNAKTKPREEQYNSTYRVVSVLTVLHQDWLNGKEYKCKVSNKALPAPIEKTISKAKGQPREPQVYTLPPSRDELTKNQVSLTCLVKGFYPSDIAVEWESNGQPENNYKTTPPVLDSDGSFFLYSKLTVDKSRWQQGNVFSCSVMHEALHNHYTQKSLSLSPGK

KD ([1]; Run 1, Cyno in house BCMA)	KD ([1]; Run 2, Cyno in house BCMA)	ka ([2]; Run 1, Human in house BCMA)	kd ([2]; Run 1, Human in house BCMA)	ka ([2]; Run 2, Human in house BCMA)	kd ([2]; Run 2, Human in house BCMA)	ka ([3]; in M-1s-1 (unit assumed))	kd ([3]; in s-1 (unit assumed))	ka [4]	kd [4]	Molecule
No	No	4.75E+05	1.95E−03	4.79E+05	1.65E−03	1.55E+06	1.48E−03			S307118G03 Chimera: chimeric S307118G03, heavy chain SEQ ID NO:73, light chain SEQ ID NO:75 (antibody, Chimeric antibody sequence) heavy: EVQLQQSGPELVKPGASVKISCKASGYTFTDYYMKWVKQSHGKSLEWIGEIYPNNGGITYNQKFKGKATLTVDKSSSTAYMELRSLTSEDSAVYYCANGYEFVYWGQGTLVTVSAAKTTAPSVFPLAPSSKSTSGGTAALGCLVKDYFPEPVTVSWNSGALTSGVHTFPAVLQSSGLYSLSSVVTVPSSSLGTQTYICNVNHKPSNTKVDKKV[omitted - human IgG1 Fc] light: DIQMTQTASSLSASLGDRVTISCSASQGISNYLNWYQQKPDGTVKLLIYYTSSLHSGVPSRFSGSGSGTDYSLTISNLEPEDIATYYCQQYSKLPWTFGGGTKLELKRTVAAPSVFIFPPSDEQLKSGTASVVCLLNNFYPREAKVQWKVDNALQSGNSQESVTEQDSKDSTYSLSSTLTLSKADYEKHKVYACEVTHQGLSSPVTKSFNRGEC
								3.11E+05	3.77E−03	S332110D07: new anti-BCMA chimeric construct, probably S322110D07 (heavy chain SEQ ID NO:126, light chain SEQ ID NO:130) (antibody, Chimeric antibody sequence) heavy: EVQLQQSGPELVKPGTSVKIPCKTSGYIFTDYSIDWVKQSHGKSLEWIGDIDPNYGDPIYNHKFKGKATLTVDRSSSTAYMELRSLTSEDTAVYFCARRATGTDWFAFWGQGTLVTVSS[omitted - human IgG1 constant region] light: DIQMTQSPASLSVSVGETVTITCRASENIYNNLAWYQQKQGKSPQLLVYAATILADGVPSRFSGSGSGTQYSLKINSLQSGDFGTYYCQHFWGTPLTFGAGTKLELKRTVAAPSVFIFPPSDEQLKSGTASVVCLLNNFYPREAKVQWKVDNALQSGNSQESVTEQDSKDSTYSLSSTLTLSKADYEKHKVYACEVTHQGLSSPVTKSFNRGEC
